# According to patent US20240239894A1, “THERAPEUTIC BINDING MOLECULES” (MedImmune Limited, priority 2020, published 2024):
# How the values were obtained:
# [1] = tested on: B7-H4-negative non-transduced HT29; assay: Flow cytometry binding; format: cell-based, human
# [2] = tested on: SKBR3 cell line (target cell); assay: ADCC with primary human NK cells; format: cell-based; settings: 1 μg/mL; NK cells from healthy donors
# Text: When IgG antibodies bind cell surface antigens via their Fab domains, the Fc portion of the antibodies can engage with FcγRIIIa on natural killer cells. The interaction of the Fc domain with FcγRIIIa induces cross-linking of the FcγRs, which triggers the release of cytotoxic granules containing perforin and granzymes, leading to the death of the target cell, a process called antibody-dependent cellular cytotoxicity (ADCC). The potential of antibody E02-INT and E02-GL-SG3932 to initiate ADCC activity was evaluated utilizing isolated primary human NK cells and the human breast cancer SKBR3 cell line as the target cell.
# Next, human breast cancer SK-BR-3 cells were co-cultured with NK cells isolated from six healthy donors in the presence of 1 μg/mL E02-GL-SG3932, antibody intermediate E02-INT, isotype-matched control antibody NIP228, and the isotype-matched control ADC NIP228-SG3932 (FIG. 37). ADCC activity was evaluated by Incycte® Annexin V Dye binding of extracellular surface exposure of phosphatidyl serine on apoptotic cells, yielding a bright and stable red fluorescent signal. The fold-change was based on maximum cell death of non-drug treated NK/SK-BR-3 co-cultured cells. Maximum cell death was calculated by dividing the average red objects in experimental wells by the average maximum cell death in Staurosporine treated SK-BR-3 cells.
# MDA-MB-468 xenografts = assay: Xenograft dose-response; format: in vivo, mouse
# Method: (§1) To further elucidate the dose-dependent effect of E02-GL-SG3932 treatment in vivo, dose levels ranging from 0.125 mg/kg to 2 mg/kg were evaluated in MX-1 and MDA-MB-468 breast cancer xenograft models. In both studies, animals were injected SC with either the MX-1 or MDA-MB-468 cells and after tumors grew in volume to a mean of approximately 138 mm3 (MX-1) or 120 mm3 (MDA-MB-468), animals were randomized and each mouse received an IV injection of either E02-GL-SG3932 or control articles.
# MX-1 xenografts = assay: Xenograft dose-response; format: in vivo, mouse; settings: day 40
# Method: as §1
molecule,measurement,setting,value
"E02-GL-SG3932: E02-GL conjugated via cleavable mal-PEG8-val-ala linker to TOP1i warhead, DAR of 8 (conjugate) heavy: QVQLQQWGAGLLKPSETLSLACTVYGGSFSGYYWNWIRQPPGKGLEWIGEINHSGSTSYNPSLKSRVTISVDTSKNQFSLKLSSVTAADTAVYYCARVLYNWNVDSWGQGTLVTVSSASTKGPSVFPLAPSSKSTSGGTAALGCLVKDYFPEPVTVSWNSGALTSGVHTFPAVLQSSGLYSLSSVVTVPSSSLGTQTYICNVNHKPSNTKVDKRV[human IgG1 Fc cut from this listing] light: DIQMTQSPSSLSASVGDRVTITCRASQDIRNDVGWYQQKPGKAPKRLIYAASRLQSGVPSRFSGSGSGTEFTLTISSLQPEDFATYYCLQHNSYPRTFGQGTKVEIKRTVAAPSVFIFPPSDEQLKSGTASVVCLLNNFYPREAKVQWKVDNALQSGNSQESVTEQDSKDSTYSLSSTLTLSKADYEKHKVYACEVTHQGLSSPVTKSFNRGEC",cellular binding,[1],did not bind
same,ADCC activity beyond untreated co-cultured cells,[2],significant increase in ADCC activity
same,% TGI,"MDA-MB-468 xenografts; 0.125 mg/kg, day 55",31.8%
same,% TGI,"MDA-MB-468 xenografts; 0.25 mg/kg, day 55",25.5%
same,% TGI,"MDA-MB-468 xenografts; 0.5 mg/kg, day 55",58.4%
same,% TGI,"MDA-MB-468 xenografts; 0.75 mg/kg, day 55",52.8%
same,% TGI,"MDA-MB-468 xenografts; 1 mg/kg, day 55",66.6%
same,% TGI,"MDA-MB-468 xenografts; 1.5 mg/kg, day 55",75.2%
same,% TGI,"MDA-MB-468 xenografts; 2 mg/kg single intravenous dose, vs untreated at day 55",97.7%
same,% TGI,MX-1 xenografts; 0.125 mg/kg,−5.5%
same,% TGI,MX-1 xenografts; 0.25 mg/kg,52.1%
same,% TGI,MX-1 xenografts; 0.5 mg/kg,80.1%
same,% TGI,MX-1 xenografts; 0.75 mg/kg,99.7%
